From the RNAGym collection of RNA variant scans (doi:10.1101/gad.245936.114)
Variants at the floor of the assay are shown more often than the library holds them.

B1: tRNA (parent)
chain: CUCUCGGUAGCCAAGUUGGUUUAAGGCGCAAGACUUUAAUUUAUCACUACGAAAUCUUGAGAUCGGGCGUUCGACUCGCCCCCGGGAGAUUUUUUCCUCGAGCAA

Variants of: B1
Experiment: nonsense suppression (GFP-seq) (ratio to wild type); higher = more function; SUP4oc tRNA, yeast GFP reporter sort-seq
Method in brief: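 Yeast were grown in raffinose/galactose medium with 80 mg/L adenine, each strain bearing a genome-integrated ochre-suppressor tRNA variant from a ~3% random-mutation library, a galactose-driven GFP ochre reporter, and RFP. After sorting into GFP/RFP bins, every bin was sequenced on an Illumina platform at phred ≥30. The GFPSEQ value, a measure of nonsense suppression, is the weighted bin median GFP/RFP relative to the unmutated parent tRNA, using each variant's estimated cell share per bin as the weight. Only variants with ≥100 reads and ≥30 cells were included.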
For U21G A54C, the nonsense suppression was 0.764.
For U22G G78C, the nonsense suppression was 0.0318.
Variant U22C C72G has a nonsense suppression of no more than 0.026.
For U21A A30G U55G, the nonsense suppression was no more than 0.026.
For U22A U35A U57A, the nonsense suppression was no more than 0.026.
U22A A30G showed a nonsense suppression of 0.677.
For A23C G28C C56G A62G, the nonsense suppression was no more than 0.026.
U22C U55A C82U G86U gave a nonsense suppression of no more than 0.026.
For U22A A23C U55C G78A, the nonsense suppression was no more than 0.026.
Work on U22G U58G U76C yielded a nonsense suppression of no more than 0.026.
Work on U22A C56U G66A G67C G85C yielded a nonsense suppression of no more than 0.026.
For U22A C27A, the nonsense suppression was no more than 0.026.
U21C U22G G65A gave a nonsense suppression of no more than 0.026.
In the case of U21G C27U U63G, the nonsense suppression is reported as no more than 0.026.
Work on U22G C27U C29U yielded a nonsense suppression of no more than 0.026.
For A23C A74U, the nonsense suppression was no more than 0.026.
A23C A74G showed a nonsense suppression of no more than 0.026.
U21A A24G G65C C80A showed a nonsense suppression of no more than 0.026.
In the case of U22C C82A, the nonsense suppression is reported as no more than 0.026.
For U21A A31G G88C, the nonsense suppression was no more than 0.026.
U22A A24G G61C showed a nonsense suppression of no more than 0.026.
Work on U21A G32U G78A yielded a nonsense suppression of no more than 0.026.
Work on U21A G65C G85U yielded a nonsense suppression of no more than 0.026.
In the case of U21G A23C A30U, the nonsense suppression is reported as no more than 0.026.
With U21A A30C C80A the nonsense suppression was no more than 0.026.
Variant U22G A62C has a nonsense suppression of no more than 0.026.
Variant U22A C29G U57G U63A C75G has a nonsense suppression of no more than 0.026.
With U21C A31G the nonsense suppression was 1.
Work on U22G G88U yielded a nonsense suppression of no more than 0.026.
U22A A33G C77A gave a nonsense suppression of no more than 0.026.
In the case of U22A A23C C27U, the nonsense suppression is reported as no more than 0.026.
Variant A23C C27A U35G has a nonsense suppression of no more than 0.026.
Work on A23C C68A yielded a nonsense suppression of no more than 0.026.
For U22G G25U C82U, the nonsense suppression was no more than 0.026.
A23C A62U G88U showed a nonsense suppression of no more than 0.026.
U21C C29U G61U gave a nonsense suppression of 0.518.
For U21G C27A U63C, the nonsense suppression was no more than 0.026.
With U22G A54G G73A the nonsense suppression was no more than 0.026.
In the case of U22G C75A A87C, the nonsense suppression is reported as no more than 0.026.
Variant U21C U58A A60U G67U has a nonsense suppression of no more than 0.026.
Work on U21A C27G C34G C68G yielded a nonsense suppression of no more than 0.026.
For U21G U22G G28A, the nonsense suppression was 0.206.
U21C G66C C82U C83G showed a nonsense suppression of no more than 0.026.
With A23C C80G the nonsense suppression was no more than 0.026.
Variant A23C A31C G59A A60C has a nonsense suppression of no more than 0.026.
Variant U22A C34U C72G has a nonsense suppression of no more than 0.026.
With U21G U35A G69C U76G the nonsense suppression was no more than 0.026.
With U22A A24U C64U the nonsense suppression was no more than 0.026.
For U22C G26A, the nonsense suppression was no more than 0.026.
For U21A U55A G61A C72U A74U, the nonsense suppression was no more than 0.026.
Variant U21G A31C has a nonsense suppression of no more than 0.026.
Variant U21G A60G has a nonsense suppression of 0.0299.
Variant U21G A60U has a nonsense suppression of 0.96.
With U22C A23U G84U the nonsense suppression was no more than 0.026.
For A23C A54U, the nonsense suppression was no more than 0.026.
With A23C G59C G61C the nonsense suppression was no more than 0.026.
With A23C G59C G61A the nonsense suppression was no more than 0.026.
For U22A G26C, the nonsense suppression was no more than 0.026.
In the case of U21G G25U G26U G61A, the nonsense suppression is reported as no more than 0.026.
With U21G A30G A89G the nonsense suppression was no more than 0.026.
With A23C G61A the nonsense suppression was no more than 0.026.
In the case of A23C G61U, the nonsense suppression is reported as no more than 0.026.
With U22C G59A A87U the nonsense suppression was no more than 0.026.
U22A G25U G78A showed a nonsense suppression of no more than 0.026.
For U21C U57G, the nonsense suppression was no more than 0.026.
In the case of A23C C77A, the nonsense suppression is reported as no more than 0.026.
Work on U21C C34U G88C yielded a nonsense suppression of no more than 0.026.
For U22C C82G G86A G88C, the nonsense suppression was no more than 0.026.
Variant U22A A31G has a nonsense suppression of 1.05.
Work on U21A A30G yielded a nonsense suppression of 0.42.
With U21G U55C the nonsense suppression was 0.208.
U22C G73U C80A showed a nonsense suppression of no more than 0.026.
U21A A60U C83G showed a nonsense suppression of no more than 0.026.
With A23C C81G G84A the nonsense suppression was no more than 0.026.
Variant U22C G67U has a nonsense suppression of no more than 0.026.
U22C G67C gave a nonsense suppression of no more than 0.026.
In the case of U22G A60U G69C G73A A74U, the nonsense suppression is reported as no more than 0.026.
U21G A87G gave a nonsense suppression of 0.172.
U21G A87U showed a nonsense suppression of no more than 0.026.
Work on U22G C56U C72A yielded a nonsense suppression of no more than 0.026.
In the case of U21C A62G U71G G88C, the nonsense suppression is reported as no more than 0.026.
Work on U22G G78U C82A yielded a nonsense suppression of no more than 0.026.
Work on U22C C27A G32U U35G G67U C80A yielded a nonsense suppression of no more than 0.026.
